# B1: GFP-tagged triple-mutated NEMO-S8, 17, 31A (natural protein)
# chain: not shown
# notes: also called triple mutant S8, 17, 31A; S8A, S17A, S31A mutant of NEMO; source: HEK293, transfected, in lysate
# Biological target: the molecule itself
# Experiment: native gel or EMSA; part of the anti-GFP immunoprecipitate from transfected HEK293 cells examined by native gel electrophoresis to detect NEMO dimerization
protein,measurement,value
B1,stoichiometry N,2

# — publication PMC5144080, “GSK-3β controls NF-kappaB activity via IKKγ/NEMO” (Scientific Reports, 2016)
